Experimental data from the supplement of paper PMC11876631.
± gives the standard deviation of the averaged measurements. Laboratory Escherichia coli strains with one amino-acid change in an essential protein, pooled on minimal glucose agar with carbenicillin or gentamicin at twice the control MIC (plus kanamycin and chloramphenicol for the plasmids), 48 h. Fold change of barcode share against drug-free plates; higher = less susceptible. Active = above 20 in both replicates (the paper's putatively resistant). '<' = one read or none on drug, '>' = one read or none on a drug-free plate. Shares are relative, so most strains fall below 1 when a few take over. Listed are strains with at least 15 reads on both drug-free plates, and hits; most hits rest on fewer reference reads. Replicate rank correlation about 0.5. Edits are read from barcodes.

Target: Escherichia coli (laboratory strain)
Experiment: barcode share on antibiotic plates over drug-free plates; higher = less susceptible
Protocol: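 A pool of E. coli strains, each edited to carry one amino-acid change in an essential protein, was grown for 48 h on minimal glucose agar with or without antibiotic; strain barcodes were sequenced; mean of two replicates.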

[1] = antibiotic: carbenicillin, 2× MIC (3.1 µg/mL)
[2] = antibiotic: gentamicin, 2× MIC (MIC 0.45 µg/mL)

| Protein | fold change of barcode share [1] | fold change of barcode share [2] |
| --- | --- | --- |
| aroB V273W (protein) MERIVVTLGERSYPITIASGLFNEPASFLPLKSGEQVMLVTNETLAPLYLDKVRGVLEQAGVNVDSVILPDGEQYKSLAVLDTVFTALLQKPHGRDTTLVALGGGVVGDLTGFAAASYQRGVRFIQVPTTLLSQVDSSVGGKTAVNHPLGKNMIGAFYQPASVVVDLDCLKTLPPRELASGLAEVIKYGIILDGAFFNWLEENLDALLRLDGPAMAYCIRRCCELKAEVVAADERETGLRALLNLGHTFGHAIEAEMGYGNWLHGEAVAAGMWMAARTSERLGQFSSAETQRIITLLKRAGLPVNGPREMSAQAYLPHMLRDKKVLAGEMRLILPLAIGKSEVRSGVSHELVLNAIADCQSA | 1.77 ± 0.45 | 0.0483 ± 0.021 |
| aroB V273Q (protein) MERIVVTLGERSYPITIASGLFNEPASFLPLKSGEQVMLVTNETLAPLYLDKVRGVLEQAGVNVDSVILPDGEQYKSLAVLDTVFTALLQKPHGRDTTLVALGGGVVGDLTGFAAASYQRGVRFIQVPTTLLSQVDSSVGGKTAVNHPLGKNMIGAFYQPASVVVDLDCLKTLPPRELASGLAEVIKYGIILDGAFFNWLEENLDALLRLDGPAMAYCIRRCCELKAEVVAADERETGLRALLNLGHTFGHAIEAEMGYGNWLHGEAVAAGMQMAARTSERLGQFSSAETQRIITLLKRAGLPVNGPREMSAQAYLPHMLRDKKVLAGEMRLILPLAIGKSEVRSGVSHELVLNAIADCQSA | 4.2 ± 1.7 | 0.086 ± 0.069 |
| aroB V273D (protein) MERIVVTLGERSYPITIASGLFNEPASFLPLKSGEQVMLVTNETLAPLYLDKVRGVLEQAGVNVDSVILPDGEQYKSLAVLDTVFTALLQKPHGRDTTLVALGGGVVGDLTGFAAASYQRGVRFIQVPTTLLSQVDSSVGGKTAVNHPLGKNMIGAFYQPASVVVDLDCLKTLPPRELASGLAEVIKYGIILDGAFFNWLEENLDALLRLDGPAMAYCIRRCCELKAEVVAADERETGLRALLNLGHTFGHAIEAEMGYGNWLHGEAVAAGMDMAARTSERLGQFSSAETQRIITLLKRAGLPVNGPREMSAQAYLPHMLRDKKVLAGEMRLILPLAIGKSEVRSGVSHELVLNAIADCQSA | 1.15 ± 0.11 | 0.0192 ± 0.011 |
| aroB V273P (protein) MERIVVTLGERSYPITIASGLFNEPASFLPLKSGEQVMLVTNETLAPLYLDKVRGVLEQAGVNVDSVILPDGEQYKSLAVLDTVFTALLQKPHGRDTTLVALGGGVVGDLTGFAAASYQRGVRFIQVPTTLLSQVDSSVGGKTAVNHPLGKNMIGAFYQPASVVVDLDCLKTLPPRELASGLAEVIKYGIILDGAFFNWLEENLDALLRLDGPAMAYCIRRCCELKAEVVAADERETGLRALLNLGHTFGHAIEAEMGYGNWLHGEAVAAGMPMAARTSERLGQFSSAETQRIITLLKRAGLPVNGPREMSAQAYLPHMLRDKKVLAGEMRLILPLAIGKSEVRSGVSHELVLNAIADCQSA | 1.3 ± 0.32 | 0.0308 ± 0.034 |
| aroB L39A (protein) MERIVVTLGERSYPITIASGLFNEPASFLPLKSGEQVMAVTNETLAPLYLDKVRGVLEQAGVNVDSVILPDGEQYKSLAVLDTVFTALLQKPHGRDTTLVALGGGVVGDLTGFAAASYQRGVRFIQVPTTLLSQVDSSVGGKTAVNHPLGKNMIGAFYQPASVVVDLDCLKTLPPRELASGLAEVIKYGIILDGAFFNWLEENLDALLRLDGPAMAYCIRRCCELKAEVVAADERETGLRALLNLGHTFGHAIEAEMGYGNWLHGEAVAAGMVMAARTSERLGQFSSAETQRIITLLKRAGLPVNGPREMSAQAYLPHMLRDKKVLAGEMRLILPLAIGKSEVRSGVSHELVLNAIADCQSA | 0.478 ± 0.068 | 0.0164 ± 0.0053 |
| aroB L39W (protein) MERIVVTLGERSYPITIASGLFNEPASFLPLKSGEQVMWVTNETLAPLYLDKVRGVLEQAGVNVDSVILPDGEQYKSLAVLDTVFTALLQKPHGRDTTLVALGGGVVGDLTGFAAASYQRGVRFIQVPTTLLSQVDSSVGGKTAVNHPLGKNMIGAFYQPASVVVDLDCLKTLPPRELASGLAEVIKYGIILDGAFFNWLEENLDALLRLDGPAMAYCIRRCCELKAEVVAADERETGLRALLNLGHTFGHAIEAEMGYGNWLHGEAVAAGMVMAARTSERLGQFSSAETQRIITLLKRAGLPVNGPREMSAQAYLPHMLRDKKVLAGEMRLILPLAIGKSEVRSGVSHELVLNAIADCQSA | 0.616 ± 0.008 | 0.0182 ± 0.0035 |
| lolA M112A (protein) MKKIAITCALLSSLVASSVWADAASDLKSRLDKVSSFHASFTQKVTDGSGAAVQEGQGDLWVKRPNLFNWHMTQPDESILVSDGKTLWFYNPFVEQATATWLKDATGNTPFALIARNQSSDWQQYNIKQNGDDFVLTPKASNGNLKQFTINVGRDGTIHQFSAVEQDDQRSSYQLKSQQNGAVDAAKFTFTPPQGVTVDDQRK | 0.161 ± 0.076 | < 0.0219 |
| lolA M112W (protein) MKKIAITCALLSSLVASSVWADAASDLKSRLDKVSSFHASFTQKVTDGSGAAVQEGQGDLWVKRPNLFNWHMTQPDESILVSDGKTLWFYNPFVEQATATWLKDATGNTPFWLIARNQSSDWQQYNIKQNGDDFVLTPKASNGNLKQFTINVGRDGTIHQFSAVEQDDQRSSYQLKSQQNGAVDAAKFTFTPPQGVTVDDQRK | 0.198 ± 0.055 | < 0.0131 |
| lolA M112Q (protein) MKKIAITCALLSSLVASSVWADAASDLKSRLDKVSSFHASFTQKVTDGSGAAVQEGQGDLWVKRPNLFNWHMTQPDESILVSDGKTLWFYNPFVEQATATWLKDATGNTPFQLIARNQSSDWQQYNIKQNGDDFVLTPKASNGNLKQFTINVGRDGTIHQFSAVEQDDQRSSYQLKSQQNGAVDAAKFTFTPPQGVTVDDQRK | 0.221 ± 0.023 | 0.0188 ± 0.0053 |
| lolA M112D (protein) MKKIAITCALLSSLVASSVWADAASDLKSRLDKVSSFHASFTQKVTDGSGAAVQEGQGDLWVKRPNLFNWHMTQPDESILVSDGKTLWFYNPFVEQATATWLKDATGNTPFDLIARNQSSDWQQYNIKQNGDDFVLTPKASNGNLKQFTINVGRDGTIHQFSAVEQDDQRSSYQLKSQQNGAVDAAKFTFTPPQGVTVDDQRK | 1.56 ± 1.6 | – |
| lolA L113A (protein) MKKIAITCALLSSLVASSVWADAASDLKSRLDKVSSFHASFTQKVTDGSGAAVQEGQGDLWVKRPNLFNWHMTQPDESILVSDGKTLWFYNPFVEQATATWLKDATGNTPFMAIARNQSSDWQQYNIKQNGDDFVLTPKASNGNLKQFTINVGRDGTIHQFSAVEQDDQRSSYQLKSQQNGAVDAAKFTFTPPQGVTVDDQRK | 0.283 ± 0.12 | – |
| lolA L113Q (protein) MKKIAITCALLSSLVASSVWADAASDLKSRLDKVSSFHASFTQKVTDGSGAAVQEGQGDLWVKRPNLFNWHMTQPDESILVSDGKTLWFYNPFVEQATATWLKDATGNTPFMQIARNQSSDWQQYNIKQNGDDFVLTPKASNGNLKQFTINVGRDGTIHQFSAVEQDDQRSSYQLKSQQNGAVDAAKFTFTPPQGVTVDDQRK | 0.339 ± 0.045 | – |
| lolA I114A (protein) MKKIAITCALLSSLVASSVWADAASDLKSRLDKVSSFHASFTQKVTDGSGAAVQEGQGDLWVKRPNLFNWHMTQPDESILVSDGKTLWFYNPFVEQATATWLKDATGNTPFMLAARNQSSDWQQYNIKQNGDDFVLTPKASNGNLKQFTINVGRDGTIHQFSAVEQDDQRSSYQLKSQQNGAVDAAKFTFTPPQGVTVDDQRK | 0.255 ± 0.17 | < 0.0128 |
| lolA F37A (protein) MKKIAITCALLSSLVASSVWADAASDLKSRLDKVSSAHASFTQKVTDGSGAAVQEGQGDLWVKRPNLFNWHMTQPDESILVSDGKTLWFYNPFVEQATATWLKDATGNTPFMLIARNQSSDWQQYNIKQNGDDFVLTPKASNGNLKQFTINVGRDGTIHQFSAVEQDDQRSSYQLKSQQNGAVDAAKFTFTPPQGVTVDDQRK | 0.403 ± 0.33 | < 0.015 |
| lolA F37W (protein) MKKIAITCALLSSLVASSVWADAASDLKSRLDKVSSWHASFTQKVTDGSGAAVQEGQGDLWVKRPNLFNWHMTQPDESILVSDGKTLWFYNPFVEQATATWLKDATGNTPFMLIARNQSSDWQQYNIKQNGDDFVLTPKASNGNLKQFTINVGRDGTIHQFSAVEQDDQRSSYQLKSQQNGAVDAAKFTFTPPQGVTVDDQRK | 0.315 ± 0.12 | 0.0169 ± 0.0093 |
| lolA F37Q (protein) MKKIAITCALLSSLVASSVWADAASDLKSRLDKVSSQHASFTQKVTDGSGAAVQEGQGDLWVKRPNLFNWHMTQPDESILVSDGKTLWFYNPFVEQATATWLKDATGNTPFMLIARNQSSDWQQYNIKQNGDDFVLTPKASNGNLKQFTINVGRDGTIHQFSAVEQDDQRSSYQLKSQQNGAVDAAKFTFTPPQGVTVDDQRK | 0.6 ± 0.46 | < 0.00611 |
